# This is one part of the list. No stated cut-off is given here; in the data, active = 3.2 or more and inactive = the rest. Most of these values are background signal.
# B1: LCP1_Y28 (peptide)
# chain: TDGNGYISFNE
# B2: LAMA2_Y2894 (peptide)
# chain: GLPINYTTRRI
# B3: LCT_Y1638_N1639S (peptide)
# chain: FKNGDYSEVMK
# B4: LCTL_Y331 (peptide)
# chain: LQEKSYIKGTS
# B5: LEMD2_Y122_P126S (peptide)
# chain: SRGLAYPARSA
# B6: LARP4_Y141 (peptide)
# chain: LSKDLYLISQM
# B7: LAMA1_Y490 (peptide)
# chain: CKPGFYNLKEK
# B8: LDHB_Y128_K127N (peptide)
# chain: PQIVNYSPDCI
# B9: LDHB_Y173_R172P (peptide)
# chain: SARFPYLMAEK
# B10: LDLR_Y845_G844D_YF (peptide)
# chain: HNQDDYSFPSR
# B11: LAMA2_Y2886_G2889R (peptide)
# chain: VVGMLYVGRLP
# B12: LDLR_Y828_N825K (peptide)
# chain: FDKPVYQKTTE
# B13: LGALS3_Y221 (peptide)
# chain: AHLLQYNHRVK
# B14: LDLR_Y828_V827I (peptide)
# chain: FDNPIYQKTTE
# B15: LENG1_Y96 (peptide)
# chain: RGNKEYEEEKR
# B16: L2HGDH_Y103_H98Y (peptide)
# chain: YSGIYYKPESL
# B17: LDLR_Y847_G844D_YF (peptide)
# chain: QDDFSYPSRQM
# B18: LCP1_Y28_D24E (peptide)
# chain: TEGNGYISFNE
# B19: LDLR_Y828_Y828C (peptide)
# chain: FDNPVCQKTTE
# B20: LDHB_Y173_R172H (peptide)
# chain: SARFHYLMAEK
# B21: LCK_Y25_V28L (peptide)
# chain: CENCHYPILPL
# B22: LBR_Y166_YF (peptide)
# chain: FIATQYSLRPR
# B23: LEF1_Y114_G113R_YF (peptide)
# chain: SSFSRYIMMPN
# B24: LDLR_Y847_G844D (peptide)
# chain: QDDYSYPSRQM
# B25: LBR_Y166_R169C_YF (peptide)
# chain: FIATQYSLCPR
# B26: L2HGDH_Y103_YF (peptide)
# chain: HSGIFYKPESL
# B27: LAMA2_Y2886 (peptide)
# chain: VVGMLYVGGLP
# B28: LAMC2_Y250 (peptide)
# chain: RLDPVYFVAPA
# B29: LENG1_Y96_E97K (peptide)
# chain: RGNKEYKEEKR
# B30: LDLR_Y845_P848L (peptide)
# chain: HNQDGYSYLSR
# B31: LDB3_Y202_T206I (peptide)
# chain: NPIGLYSAEIL
# B32: LEMD3_Y258_D260Y (peptide)
# chain: SCRENYSYSEE
# B33: LDLR_Y847_P848L (peptide)
# chain: QDGYSYLSRQM
# B34: LDLR_Y847_YF (peptide)
# chain: QDGFSYPSRQM
# B35: LAMA1_Y490_C485Y_YF (peptide)
# chain: FKPGFYNLKEK
# B36: LDLR_Y845 (peptide)
# chain: HNQDGYSYPSR
# B37: LAMA3_Y791_T796N (peptide)
# chain: RVILRYVNPGN
# Target: SHP2 C-SH2 domain E139D
# Experiment: enrichment score (SH2-bound / input frequency) (ratio); bacterial display of known human phosphotyrosine sites (pTyr-Var adds point mutants) read by sequencing; higher = stronger binding; tyrosines were phosphorylated by kinases first
# Details: peptide library: pTyr-Var
# 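Further: displayed peptides selected on beads carrying the immobilized SH2 domain, with library peptides lacking any tyrosine serving as negative controls.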
row,Binder,enrichment score
1,B1,inactive: 0.634
2,B2,inactive: 0.111
3,B3,inactive: 0.748
4,B4,inactive: 0.548
5,B5,inactive: 0.459
6,B6,inactive: 1.38
7,B7,inactive: 1.12
8,B8,inactive: 0.474
9,B9,inactive: 1.04
10,B10,inactive: 0.521
11,B11,inactive: 0.893
12,B12,inactive: 0.644
13,B13,inactive: 1.55
14,B14,inactive: 0.803
15,B15,inactive: 0.46
16,B16,inactive: 1.4
17,B17,inactive: 0.73
18,B18,inactive: 0.646
19,B19,inactive: 0.877

row,Binder,enrichment score
1,B20,inactive: 0.757
2,B21,inactive: 0.926
3,B22,inactive: 0.257
4,B23,inactive: 0.722
5,B24,inactive: 0.714
6,B25,inactive: 0.761
7,B26,inactive: 1.13
8,B27,inactive: 1.06
9,B28,inactive: 0.758
10,B29,inactive: 1.49
11,B30,inactive: 0.737
12,B31,inactive: 0.978
13,B32,inactive: 0.619
14,B33,inactive: 0.417
15,B34,inactive: 0.53
16,B35,inactive: 0.8
17,B36,inactive: 0.765
18,B37,inactive: 1.4

# Target: SHP2 C-SH2 domain wild-type
# Experiment: as above
# Details: peptide library: pTyr-Var
row,Binder,enrichment score
1,B1,inactive: 1.18
2,B2,inactive: 0.217
3,B3,inactive: 1.02
4,B4,inactive: 0.509
5,B5,inactive: 0.479
6,B6,inactive: 1.19
7,B7,inactive: 1.05
8,B8,inactive: 0.686
9,B9,inactive: 0.868
10,B10,inactive: 0.192
11,B11,inactive: 0.792
12,B12,inactive: 0.527
13,B13,inactive: 1.46
14,B14,inactive: 0.983
15,B15,inactive: 0.342
16,B16,active: 3.45
17,B17,inactive: 0.684
18,B18,inactive: 0.951
19,B19,inactive: 0.813

row,Binder,enrichment score
1,B20,inactive: 0.9
2,B21,inactive: 1.02
3,B22,inactive: 0.213
4,B23,inactive: 0.598
5,B24,inactive: 0.394
6,B25,inactive: 0.826
7,B26,inactive: 0.972
8,B27,inactive: 1.12
9,B28,inactive: 0.568
10,B29,inactive: 1.24
11,B30,inactive: 1.1
12,B31,inactive: 0.836
13,B32,inactive: 0.628
14,B33,inactive: 0.845
15,B34,inactive: 0.558
16,B35,inactive: 0.78
17,B36,inactive: 0.498
18,B37,inactive: 1.06

# Target: SHP2 N-SH2 domain L43F
# Experiment: as above
# Details: peptide library: pTyr-Var
row,Binder,enrichment score
1,B1,inactive: 0.757
2,B2,inactive: 0.152
3,B3,inactive: 0.71
4,B4,inactive: 0.78
5,B5,inactive: 0.43
6,B6,inactive: 1.15
7,B7,inactive: 0.745
8,B8,inactive: 1.49
9,B9,inactive: 1.02
10,B10,inactive: 0.634
11,B11,inactive: 0.736
12,B12,inactive: 0.459
13,B13,inactive: 1.42
14,B14,inactive: 0.831
15,B15,inactive: 0.449
16,B16,inactive: 1.55
17,B17,inactive: 0.605
18,B18,inactive: 0.731
19,B19,inactive: 0.746

row,Binder,enrichment score
1,B20,inactive: 0.772
2,B21,inactive: 0.873
3,B22,inactive: 0.216
4,B23,inactive: 0.672
5,B24,inactive: 0.582
6,B25,inactive: 1.27
7,B26,inactive: 1.26
8,B27,inactive: 0.841
9,B28,inactive: 0.799
10,B29,inactive: 1.23
11,B30,inactive: 0.469
12,B31,inactive: 0.874
13,B32,inactive: 0.793
14,B33,inactive: 0.716
15,B34,inactive: 0.66
16,B35,inactive: 0.727
17,B36,inactive: 0.767
18,B37,inactive: 1.04

# Target: SHP2 N-SH2 domain T42A
# Experiment: as above
# Details: peptide library: pTyr-Var
row,Binder,enrichment score
1,B1,inactive: 1.51
2,B2,inactive: 0.217
3,B3,inactive: 0.725
4,B4,inactive: 0.337
5,B5,inactive: 0.551
6,B6,inactive: 0.953
7,B7,inactive: 0.851
8,B8,inactive: 0.597
9,B9,inactive: 0.84
10,B10,inactive: 0.444
11,B11,inactive: 0.708
12,B12,inactive: 0.484
13,B13,inactive: 1.35
14,B14,inactive: 0.789
15,B15,inactive: 0.429
16,B16,inactive: 2.35
17,B17,inactive: 0.623
18,B18,inactive: 1.37
19,B19,inactive: 0.716

row,Binder,enrichment score
1,B20,inactive: 0.643
2,B21,inactive: 0.863
3,B22,inactive: 0.124
4,B23,inactive: 0.655
5,B24,inactive: 0.43
6,B25,inactive: 0.684
7,B26,inactive: 1.16
8,B27,inactive: 0.86
9,B28,inactive: 0.611
10,B29,inactive: 0.712
11,B30,inactive: 0.665
12,B31,inactive: 0.782
13,B32,inactive: 0.635
14,B33,inactive: 0.848
15,B34,inactive: 0.395
16,B35,inactive: 0.656
17,B36,inactive: 0.736
18,B37,inactive: 0.943

# Target: SHP2 N-SH2 domain T52S
# Experiment: as above
# Details: peptide library: pTyr-Var
row,Binder,enrichment score
1,B1,inactive: 0.75
2,B2,inactive: 0.229
3,B3,inactive: 0.861
4,B4,inactive: 0.595
5,B5,inactive: 0.627
6,B6,inactive: 1.04
7,B7,inactive: 0.793
8,B8,inactive: 0.372
9,B9,inactive: 0.72
10,B10,inactive: 0.659
11,B11,inactive: 0.869
12,B12,inactive: 0.611
13,B13,inactive: 1.45
14,B14,inactive: 0.769
15,B15,inactive: 0.559
16,B16,inactive: 1.74
17,B17,inactive: 0.734
18,B18,inactive: 0.841
19,B19,inactive: 0.75

row,Binder,enrichment score
1,B20,inactive: 0.681
2,B21,inactive: 0.871
3,B22,inactive: 0.273
4,B23,inactive: 0.697
5,B24,inactive: 0.496
6,B25,inactive: 1.78
7,B26,inactive: 1.48
8,B27,inactive: 1.15
9,B28,inactive: 0.778
10,B29,inactive: 1.39
11,B30,inactive: 0.535
12,B31,inactive: 0.986
13,B32,inactive: 0.613
14,B33,inactive: 0.527
15,B34,inactive: 0.592
16,B35,inactive: 0.762
17,B36,inactive: 0.422
18,B37,inactive: 1.17

# Target: SHP2 N-SH2 domain wild-type
# Experiment: as above
# Details: peptide library: pTyr-Var
row,Binder,enrichment score
1,B1,inactive: 0.792
2,B2,inactive: 0.143
3,B3,inactive: 0.6
4,B4,inactive: 0.542
5,B5,inactive: 0.666
6,B6,inactive: 1.11
7,B7,inactive: 0.938
8,B8,inactive: 0.66
9,B9,inactive: 1.23
10,B10,inactive: 0.431
11,B11,inactive: 0.707
12,B12,inactive: 0.648
13,B13,inactive: 1.71
14,B14,inactive: 0.964
15,B15,inactive: 0.579
16,B16,inactive: 0.979
17,B17,inactive: 0.502
18,B18,inactive: 1.36
19,B19,inactive: 0.808

row,Binder,enrichment score
1,B20,inactive: 0.843
2,B21,inactive: 0.749
3,B22,inactive: 0.242
4,B23,inactive: 0.65
5,B24,inactive: 0.498
6,B25,inactive: 0.906
7,B26,inactive: 1.33
8,B27,inactive: 1.31
9,B28,inactive: 0.735
10,B29,inactive: 0.874
11,B30,inactive: 0.557
12,B31,inactive: 0.889
13,B32,inactive: 1.04
14,B33,inactive: 0.443
15,B34,inactive: 0.588
16,B35,inactive: 0.578
17,B36,inactive: 0.625
18,B37,inactive: 1.07

# Reference: the supplement of paper PMC10369915
